Our source for the binding signal values is publication PMC7819943, “Rice protein-binding microarrays: a tool to detect cis-acting elements near promoter regions in rice”.

Some of the results follow.

For this test, the target named is T1, OsWOX13 (Oryza sativa, UniProt Q5QMM3 1-267).
T1 sequence: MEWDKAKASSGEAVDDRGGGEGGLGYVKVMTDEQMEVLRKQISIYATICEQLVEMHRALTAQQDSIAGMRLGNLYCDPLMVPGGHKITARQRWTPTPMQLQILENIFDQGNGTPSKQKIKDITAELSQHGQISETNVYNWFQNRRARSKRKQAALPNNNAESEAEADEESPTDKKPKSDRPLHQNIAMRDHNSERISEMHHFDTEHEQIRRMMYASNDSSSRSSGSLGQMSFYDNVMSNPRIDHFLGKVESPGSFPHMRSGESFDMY
As to the kind of experiment: protein-binding microarray (RPBM); PBS, 2% BSA, 51.3 ng/ul salmon testes DNA, 50 uM zinc acetate, 200 nM TF, 25 C, 1 h; high values mean tight binding. Conditions: protein: recombinant; tags: N-terminal polyhistidine and DsRed monomer fusion (pET32a); label: CyDye5-dUTP incorporated in the synthesized complementary strand; 3' TTTTT single-stranded linker to array surface; dsDNA, one strand shown. In outline: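 Binding signal is reported as fluorescence intensity per feature (arbitrary units) from an Axon 4000B scanner. Incubation used 200 nM of each Ni–NTA-purified, N-terminally polyhistidine- and DsRed-fused transcription factor from E. coli BL21-CodonPlus on a double-stranded custom Agilent array for 1 h at 25 °C, with 50 µM zinc acetate in the buffer, followed by washing.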
Turning to “GTTGATTGGGTAAATCATATGATCGTAATGTATTGTGAATCGGAGTCACCTAGTGCAG”, the binding signal was 64600 fluorescence intensity (a.u.).
With “TCAAGACATGATTTTCTTCTCTTTCCTCGTTTATTTACTTCGGAGTCACCTAGTGCAG” the figure was 3730 fluorescence intensity (a.u.).
With “TAAAACAAATTATATATTCCACATGTAAATTGCGAGACGACGGAGTCACCTAGTGCAG” the figure was 8550 fluorescence intensity (a.u.).
For the sequence “GCAGCCTTAATTAGCATTTCTAGAAAATTCTACTTCTTCCCGGAGTCACCTAGTGCAG”, the binding signal is 10100 fluorescence intensity (a.u.).
For the sequence “GGATACTTGGATGATTGGGCCTGGGAAAGTAAGCCTACTACGGAGTCACCTAGTGCAG”, the binding signal was 4980 fluorescence intensity (a.u.).
“TTGAGATTGTAATTTGCGAACGATCTCGGTTGTGCTGAGACGGAGTCACCTAGTGCAG”: the binding signal was 14200 fluorescence intensity (a.u.).
“ACCATTTTGTGATTTGTTGCTGCAAGCCTCATTATCGTTCCGGAGTCACCTAGTGCAG”: the binding signal is 7330 fluorescence intensity (a.u.).
Take “AATCGTGAATGGTCAAATTTGTTTGTTATACTTTGTTTTGCGGAGTCACCTAGTGCAG”: the binding signal is 4700 fluorescence intensity (a.u.).
Regarding “TGGGGATGGGGAATTGACCTGGGTAGGGGTGGTAATTGGGCGGAGTCACCTAGTGCAG”, the binding signal was 10100 fluorescence intensity (a.u.).
As for “TTAAAATTATTTTATAATTAATATTTATTATTATTATTAGCGGAGTCACCTAGTGCAG”, the figure is 12400 fluorescence intensity (a.u.); as for “ATGTAATTTGTTTTCTTATTAGATTACGTTTAATATTTTACGGAGTCACCTAGTGCAG”, 10500 fluorescence intensity (a.u.).
As for “ATATATGATATGGATGATTTCAATTTCGTAAGACTGTTTTCGGAGTCACCTAGTGCAG”, the binding signal is 4390 fluorescence intensity (a.u.).
As for “TATAATTAATTTTATTTAATACTCAATACATATATTAAAGCGGAGTCACCTAGTGCAG”, the figure is 40500 fluorescence intensity (a.u.); as for “TTGATTGACTAAACTGTCACGTCAGCGTCATATTGACGAACGGAGTCACCTAGTGCAG”, 54900 fluorescence intensity (a.u.).
Regarding “GACTGATGGCTCTGATGGAGGGTGATCACATTGGCCCTTTCGGAGTCACCTAGTGCAG”, the binding signal is 6730 fluorescence intensity (a.u.).
With “CATTCTAATTGCACCAGTCCCCGCCAATAATCAACGCATTCGGAGTCACCTAGTGCAG” the figure was 22100 fluorescence intensity (a.u.); with “CGATCTGAATGTTAATTAGTGGTTGGCAGGCAGGCGCCAACGGAGTCACCTAGTGCAG”, 7940 fluorescence intensity (a.u.); with “ACAATTGACAAGAGGCAAGATACCTTTTGTGGTGGGTTGTCGGAGTCACCTAGTGCAG”, 10800 fluorescence intensity (a.u.).
With “GCCTTTAGATAATTAATCTACGGTCCAAACTATCCCAATACGGAGTCACCTAGTGCAG” the figure was 6520 fluorescence intensity (a.u.).
As for “GTTTCACTAAATTATTTGGAATGTTGCATGTGATATTCTTCGGAGTCACCTAGTGCAG”, the figure is 4100 fluorescence intensity (a.u.); as for “TCCCAAGTGGTGATTTGTTGCTGAAAGTGCTCCTCCTTTTCGGAGTCACCTAGTGCAG”, 4460 fluorescence intensity (a.u.).
Turning to “GTAAATTACACTGGTAGTTCTTAAACTTGTAACGAAGTTTCGGAGTCACCTAGTGCAG”, the binding signal is 7520 fluorescence intensity (a.u.).
Turning to “GTAGTTAATTAGCACATTCTCTCCCCTAAATTATTACTCCCGGAGTCACCTAGTGCAG”, the binding signal was 21300 fluorescence intensity (a.u.).
With “ACATATCTTAAGATTGATGAAGTCACCACGAACGCCTCGCCGGAGTCACCTAGTGCAG” the figure was 11700 fluorescence intensity (a.u.); with “ATTCTTAAATTGTTTTAACTAATACTTAATCAGCCATGAACGGAGTCACCTAGTGCAG”, 7790 fluorescence intensity (a.u.); with “ACGGAACAATTTATTAGCACATGATTAAATAAATATTAGTCGGAGTCACCTAGTGCAG”, 6640 fluorescence intensity (a.u.).
Consider “ATGGTTCTGATGTCATTGATAGATTTGAGAGAACATGTACCGGAGTCACCTAGTGCAG”, for which the binding signal was 10700 fluorescence intensity (a.u.).
With “ATCTCAACAATCAATCGAATTAGACAAACAACTCATCAGGCGGAGTCACCTAGTGCAG” the figure was 13500 fluorescence intensity (a.u.); with “TGGAAGATTGGCACGGACGATCCCCGGAAGGCGACGTACGCGGAGTCACCTAGTGCAG”, 11600 fluorescence intensity (a.u.).
With “TGCCTAATTGATTAGTACTAGATACTTTCTGCATCACTACCGGAGTCACCTAGTGCAG” the figure was 43100 fluorescence intensity (a.u.).
Consider “ACACGTGAAGGATAATAATTATGTCTCTCTGAAATTAAGTCGGAGTCACCTAGTGCAG”, for which the binding signal was 3800 fluorescence intensity (a.u.).
Consider “ATATTGATTAGGCTCTCGGCTCTCTATTTAACCAACTGAACGGAGTCACCTAGTGCAG”, for which the binding signal was 34300 fluorescence intensity (a.u.).
As for “AGAAATTGAACGTGATTAACGGGGAGGGCACTAGTGAGGCCGGAGTCACCTAGTGCAG”, the figure is 53000 fluorescence intensity (a.u.).
With “AGTTAAATTAGAAAGTGGAACACTACCAAACAAGTTCACACGGAGTCACCTAGTGCAG” the figure was 5980 fluorescence intensity (a.u.); with “ATAACCAAATCATAAATTATATAAATGGGTTAAGAGAAAACGGAGTCACCTAGTGCAG”, 14700 fluorescence intensity (a.u.); with “ATTTGATTTATTGTTAAATATACTTTCATGTACACATATACGGAGTCACCTAGTGCAG”, 23700 fluorescence intensity (a.u.).
With “AGCTAAATTGATTCGTGCACCCAAGTCAACAAGAAAACGTCGGAGTCACCTAGTGCAG” the figure was 38900 fluorescence intensity (a.u.); with “TATATATGACAGATAAACGCTGCGGTGCCCTAGTGTGTGTCGGAGTCACCTAGTGCAG”, 3150 fluorescence intensity (a.u.); with “CAATAATTAAAACTCAATTAATCATACGCTAATAGCTTTTCGGAGTCACCTAGTGCAG”, 37300 fluorescence intensity (a.u.).
For “AAATAGTTTATACTCAATTAATTATATGCTAATAGCTCACCGGAGTCACCTAGTGCAG”, the binding signal is 12800 fluorescence intensity (a.u.).
With “AAAATTATGCGTCCTAATCATCAATCAACATATGAAGAAGCGGAGTCACCTAGTGCAG” the figure was 20600 fluorescence intensity (a.u.); with “ACGGCCCAATCACGCGCGCACGGCTCGGCCCGCGAGGCGTCGGAGTCACCTAGTGCAG”, 3480 fluorescence intensity (a.u.).
